The campaign covered roughly 52,000 compounds. About 1,700 (3.3%) were called active. No stated cut-off is given here; in the data, active means survival mostly below about 52% (no sharp cut-off); inactive means mostly above about 56%. The list shows a part of the results.
The compounds below were run on Wild type (assay: S. aureus survival, RN4220 and DeltatarO strains – OD600, teichoic acid synthesis inhibitors, primary screen (AID 463173)). Settings: S. aureus RN4220 wild type/DeltatarO growth, OD600, 18 h, active compounds read low, screened at 18.75 µg/mL (by protocol).

| SMILES | survival |
| --- | --- |
| CCC(Sc1nncn2c1cc1occc12)C(=O)Nc1ccc(C)c(Cl)c1 (centres undefined) | inactive: 44% |
| CC(Sc1nnc(-c2ccccc2)n1N)C(=O)O (centres undefined) | inactive: 109% |
| O=C(Cn1nc(-c2ccc(Cl)cc2)ccc1=O)NCc1ccccc1Cl | inactive: 65% |
| COc1cccc(N2CCN(C3C(=O)c4ccccc4N3C(C)=O)CC2)c1 (centres undefined) | inactive: 74% |
| COc1cccc(C2C(C(=O)Nc3ccc(C)cc3C)=C(C)Nc3c(C(=O)Nc4cccc(C)c4)cnn32)c1OC (centres undefined) | inactive: 78% |
| CCOc1ccc(OCC)c(NC(=O)CN(C)S(=O)(=O)c2ccc3c(c2)CCCC(=O)N3)c1 | inactive: 57% |
| COc1ccc(N2CCN(C(=O)c3ccc(-c4nc(COc5ccccc5)c(C)o4)cc3)CC2)cc1 | inactive: 82% |
| CCCNC(=O)C1CCC(Cn2c(=O)c3sccc3n(CC(=O)N3CCC(C)CC3)c2=O)CC1 (centres undefined) | inactive: 75% |
| Cc1cccc(OCC(=O)N(Cc2sccc2C)C2CCS(=O)(=O)C2)c1 (centres undefined) | inactive: 85% |
| Cc1cccc(C)c1NC(=O)CCC(=O)O | inactive: 99% |
| COc1ccc(N2CCN(C(=O)c3nc(SC)ncc3Cl)CC2)cc1 | inactive: 93% |
| CC1=C(c2ccc(C)c(C)c2)S(=O)(=O)N=C1N1CCC(C(=O)NCc2ccc(C)o2)CC1 | inactive: 82% |
| Cc1ccccc1OCCn1c(CCNC(=O)C(C)(C)C)nc2ccccc21 | inactive: 75% |
| COc1ccc(C(C)C)cc1S(=O)(=O)NCCc1c(C)[nH]c2ccc(C)cc12 | inactive: 139% |
| CC(C)(C)OC(=O)N1CCC(c2c(C(=O)N3CCc4ccccc4C3)cnn2-c2ccc(F)cc2)CC1 | inactive: 76% |
| Cc1coc2c(C)c3oc(=O)c(CCC(=O)NCCc4ccc(Cl)cc4)c(C)c3cc12 | inactive: 79% |
| CCc1ccc(CNC(=O)c2ccc(-c3nc(CS(=O)(=O)c4ccccc4)c(C)o3)cc2)cc1 | inactive: 53% |
| COc1cc2c(cc1OC)C(C)N(C(=O)CN1CCOCC1)CC2 (centres undefined) | inactive: 97% |
| CCOc1cc(-n2cnnn2)c(OCC)cc1NC(=O)c1cc2cccc(OC)c2oc1=O | inactive: 104% |
| CC(NC(=O)CCCn1c(=O)c2cccn2c2cccnc21)c1ccccc1 (centres undefined) | inactive: 86% |
| COc1ccc(OC)c(CNC(=O)Cc2ccc(NC(=O)N3CCCCc4ccccc43)cc2)c1 | inactive: 73% |
| COCCCNC(=O)c1c(NC(=O)Cc2coc3cc(C)cc(C)c23)sc2c1CCCC2 | inactive: 86% |
| CCc1ccc(CNC(=O)CSc2cc(=O)n(C)c3ccc(Cl)cc23)cc1 | inactive: 71% |
| CCN(CCCNC(=O)c1cc2c(=O)n(CC)c3ccccc3c2s1)c1ccccc1 | inactive: 58% |

— PubChem BioAssay AID463173 (ICCB-Longwood Screening Facility, Harvard Medical School, 2010)
